B1: CPEB3 Ribozyme (parent)
chain: UAACAGGGGGCCACAGCAGAAGCGUUCACGUCGCAGCCCCUGUCAGAUUCUGGUGAAUCUGCGAAUUCUGCUGUAUAUCUC

Read counts are not given, so values of variants with three or more changes are uncertain.

Variants of B1 are the subject of the series. Put plainly: self-cleavage, relative activity (ratio to wild type); higher = more cleavage; in vitro, sequencing. A digest of the protocol: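 CPEB3 self-cleaving ribozyme mutant libraries were made by rounds of error-prone PCR, barcoded, and transcribed in vitro with T7 RNA polymerase for 5 hours at 37°C. Cleavage occurred during transcription and a 15 min DNase I step before EDTA stop. RNAs were reverse transcribed with template switching and Illumina-sequenced, with DNA sequencing mapping barcodes to variants. Relative activity is the variant's cleaved/total read fraction divided by wild type's (minimum 5 reads), averaged across three batches.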
A2G A13U A18G A28G A56G U58G U78C: the self-cleavage amounted to 0.14. As to U1C C11A G53U U60C, the self-cleavage is 0.27.

Turning to U1C U43C A57G U76A U80C, the self-cleavage is 0.31. To U1C A20G A56C belongs 0.26; to U1C A15U A18G G33A A56G A65U, 0.05; to U1C A57G U67C, 0.22. Consider U1C A20G A45G U51A U58A, for which the self-cleavage came to 0.32.

A2G A5U A20U U49C A56G G70C: the self-cleavage came to 0.15. In the case of A2C G19A U74G it was 0.23; in that of U1C U25C A35G C40A A56G, 0.49; in that of U1G U25C C40A A75G, 0.28. Regarding U1C G30U A64U U72A, the self-cleavage turned out to be 0.18. To A2G A13G A15U A20U U54C U78C belongs 0.07; to U1C G6U A57U U72C U78C, 0.07. For the variant U1C G24A U60A, the self-cleavage worked out at 0.08.

With U1C U54C A65G U74C, the self-cleavage worked out at 0.59. Consider U1G A35G U54C C68U, for which the self-cleavage is 1.26.

In the case of U1C U43C U74C, the self-cleavage was found to be 0.75. In the case of U1C U31A A64G it was 0.4; in that of U1C G10A A35G, 0.51. Regarding U1C A13U U26C C50U, the self-cleavage turned out to be 0.26.

U1C U25C A28U: the self-cleavage was 0.27. As for U1C A35G G36U, the self-cleavage stood at 0.34. With U1C U41A U43C C44A A65U, the self-cleavage stood at 0.11. For the variant U1C G8U A18U, the self-cleavage came out at 0.06. Take A2G A3U G10A U72C U76C: the self-cleavage turned out to be 0.06. On to U1C A28C U51A, for which the self-cleavage turned out to be 0.44.

With U1C A35C U41C U69C A75G, the self-cleavage was found to be 0.4. In the case of U1C A28U U41A G55C U72C, the self-cleavage worked out at 0.17. With U1C C11G U60C, the self-cleavage was 0.08.

Take A2G A3G U43C U72A A77G: the self-cleavage stood at 0.41.

For A2G A15G U26C G33A, the self-cleavage came out at 0.38. To A2G A13C A35U U49C A65U U74C A75C belongs 0.55; to U1C C12U A35G, 1.09. U1C C40A U69C: the self-cleavage was 0.05. Take U1C A20U U54C U67G U69C U72A: the self-cleavage was 0.03. In the case of A2G A15G A45G U69C U78C, the self-cleavage came to 0.38.

Take U1C C27A A28G C34A: the self-cleavage was determined as 0.26. Regarding U1C U43A U48C U67A, the self-cleavage stood at 0.16.

Regarding U1C U43C A65G U72C, the self-cleavage is 0.12. As to A2G A13U U41A A45C U54C U72A, the self-cleavage was 0.06. For U1C G8C A15G A28U U51A U67C A75G, the self-cleavage was found to be 0.03. In the case of U1C U31A A35U C38U U41C U54C it was 0.07.

On to U1C A13G U26A A35G U67C, for which the self-cleavage was 0.36.

A2G A5U A28G G42U A64U: the self-cleavage is 0.27. As for U1C A13G A28G U48C U60C, the self-cleavage was determined as 0.17.

For U1C C29U U49C U69A U80A, the self-cleavage was found to be 0.05. In the case of A2C A45G U54C, the self-cleavage is 0.8. In the case of A2G A13G U26A U48C it was 0.24. Turning to U1G A20G A35G U49C A65G U74C, the self-cleavage is 0.29. In the case of U1C U25C U31C U60C A64U U72C it was 0.14; in that of U1G A2G C44U A57G, 0.1; in that of A2C A65C U69C U74A, 0.25. As to A2G A5G A45G A56G, the self-cleavage was 0.4. Consider A2G A13G U72C, for which the self-cleavage amounted to 0.47.

Turning to U1C C40A A45U, the self-cleavage was 0.06.

Regarding A2C C14U A28G C40U, the self-cleavage was 0.29.

For U1C A28G U41C A45U U48C A56U U69A, the self-cleavage stood at 0.04.

With U1C A57G U74C A75G, the self-cleavage came out at 1.15.

As for U1C G9A U31C A47U U51C U54C, the self-cleavage stood at 0.05. On to A2G A13C A18G, for which the self-cleavage was 0.17. For the variant U1C A18G U25C U60C U72C, the self-cleavage worked out at 0.38. A2G A3G U25C A56U A64U: the self-cleavage was 0.09. Turning to A2C A15G U31A U69A, the self-cleavage turned out to be 0.34. As for U1C U31G U76A, the self-cleavage is 0.32. For A2C A45G U74C U80C, the self-cleavage stood at 0.84.

Turning to U1C C12G A13U, the self-cleavage was 0.79.

As to U1C A13G A28G, the self-cleavage is 0.55. In the case of A2G A5U A15G U43C U48C A64C U74C, the self-cleavage worked out at 0.1. For the variant U1C C11U A15G A28G C39U A45G, the self-cleavage was 0.06. Take A2G A5G G10A U43C U54C G63A: the self-cleavage was determined as 0.45.

Regarding A2G A3G U26C A47U U78C, the self-cleavage turned out to be 0.5. In the case of U1C A13G G16A C62A A64G it was 0.08; in that of A2G A18U U58A U67C, 0.12; in that of U1C C11A C40A U69C U80C, 0.05. To U1C U25C A35U belongs 0.4; to U1C A13U U78A, 0.85; to U1C G33U C39U A57G U67A U76C, 0.04. In the case of U1C G30A U49C, the self-cleavage came out at 0.22. As for U1C A18G C29U A56U C59A, the self-cleavage was 0.19.

A2C A15G C27G U54C U80C: the self-cleavage was 0.25. In the case of A2G A15G A28U U67A C68A, the self-cleavage was found to be 0.32. Take U1C A21G C32U G33A: the self-cleavage is 0.13.
